From patent US10456379B2, “Imidazole-based antimicrobial agents” (priority 2014, dated 2019)

What was measured:
Type in all cases: cell-based
[1] = test system: Human hepatocytes (HepaRG cells); assay: Human cytotoxicity assay in vitro (CellTiter-Glo), hepatocytes; set-up: key: 4: inhibiting cell viability 50% or more at concentrations of 10 μM or less; 3: causing at least 80% inhibition of viability at 25 μM; showing toxicity at 25 μM, but causing less than 20% inhibition of viability; 1: not causing a loss of viability at concentrations between 25 and 50 μM; without signs of cell viability loss at concentrations of 50 μM or higher
[2] = test system: Human keratinocytes (HaCaT cells); assay: Human cytotoxicity assay in vitro (CellTiter-Glo), keratinocytes
[3] = test system: Escherichia coli TolC mutant strain ΔtolC
[4] = test system: Streptococcus pneumoniae (Chester, ATCC49619); assay: Broth microdilution MIC assay, Streptococcus pneumoniae; settings: MIC class score, MIC100, broth microdilution

Structure (SMILES) | cytotoxicity, cell line H (hepatocytes), class [1] | cytotoxicity, cell line K (keratinocytes), class [2] | Antibacterial activity, EC Δ (Escherichia coli ΔtoIC), MIC class [3] | Antibacterial activity Streptococcus pneumoniae [4]
Cc1[nH]c(-c2ccc(-c3ccccc3C(F)(F)F)o2)nc1-c1ccccc1 [compound 17] | 3 | 3 (causing more than 50% inhibition of cell viability at 10 μM) | 1 (MIC100 of 20-50 μg/ml or an MIC50 of <10 μg/ml) | –
Cc1[nH]c(-c2ccc(-c3ccccc3OC(F)(F)F)o2)nc1-c1ccccc1 [compound 18] | 2 | 2 (causing >50% inhibition of cell viability at 25 μM) | 1 (MIC100 of 20-50 μg/ml or an MIC50 of <10 μg/ml) | –
Cc1[nH]c(-c2ccc(-c3cccc(F)c3C)o2)nc1-c1ccccc1 [compound 60] | 3 | 2 (causing >50% inhibition of cell viability at 25 μM) | 1 (MIC100 of 20-50 μg/ml or an MIC50 of <10 μg/ml) | –
Cc1ccccc1-c1cnc(-c2ccc(-c3ccccc3C(F)(F)F)o2)[nH]1 [compound 69] | 2 | 1 (causing less than 50% inhibition of cell viability at 50 μM) | 1 (MIC100 of 20-50 μg/ml or an MIC50 of <10 μg/ml) | 4 (MIC of 1 μg/ml or less for preventing streptococcal growth 100% (MIC100))
